Source: a collection of fitness landscapes (doi:10.1016/j.celrep.2020.107928)
In all, about 81,000 sequences were measured (“one-hybrid fitness for binding parS DNA”: median about -0.17, highest 2% from about 0.51 on). The list shows a part of the results.

B1: Caulobacter ParB omega fusion; a variant is named by its letters at X, in order, B8GW30 (parent)
chain: MESVVVGEPGMSEGRRGLGRGLSALLGEVDAAPAQAPGEQLGGSREAPIEILQRNPDQPRRTFREEDLEDLSNSIREKGVLQPILVRPSPDTAGEYQIVAGERAWRAAQRAGLKTVPIMVRELDDLAVLEIGIIENVQRADLNVLEEALSYKVLMEKFERTQENIAQTIGKSXSHVANXMRLLXLPDEVQSYLVSGELTAXHARAIAAAADPVALAKQIIEGGLSVRETEALARKAPNLSAGKSKGGRPPRVKDTDTQALESDLSSVLGLDVSIDHRGSTGTLTITYATLEQLDDLCNRLTRGI

Variants of: B1
Assay: one-hybrid fitness for binding parS DNA (scaled: cognate 1, non-cognate 0); higher = stronger binding
Details: with parS DNA site
Method in brief: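 Caulobacter ParB libraries with four specificity codons randomised were screened by bacterial one-hybrid selection in the E. coli USO strain, using a HIS3 reporter whose site lies 19 bp from the promoter. Selection ran for 48 hours at 37°C on M9 lacking histidine, with 0.1 mM IPTG and 5 mM 3-AT. Plasmids were Illumina-sequenced before and after selection, three replicate libraries were pooled, and variants with under 10 reads were dropped. Fitness is the log change in each variant's read ratio to wild type, rescaled against the cognate and non-cognate sites.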

| Variant | one-hybrid fitness for binding parS DNA |
| --- | --- |
| FRRL | ≤ 0.2 |
| DTPS | ≤ 0.2 |
| PLSL | ≤ 0.2 |
| ARWT | ≤ 0.2 |
| WGKS | ≤ 0.2 |
| QKCD | ≤ 0.2 |
| TNYQ | ≤ 0.2 |
| TFSA | ≤ 0.2 |
| GADG | ≤ 0.2 |
| LPWS | ≤ 0.2 |
| IMPV | ≤ 0.2 |
| HCMC | ≤ 0.2 |
| VTMR | ≤ 0.2 |
| LALD | ≤ 0.2 |
| PRAI | ≤ 0.2 |
| PRKH | ≤ 0.2 |
| QVNT | ≤ 0.2 |
| QCLW | ≤ 0.2 |
| ILRA | ≤ 0.2 |
| CQSS | ≤ 0.2 |
| GDVI | ≤ 0.2 |
| KVYC | ≤ 0.2 |
| NNGN | ≤ 0.2 |
| SPAK | ≤ 0.2 |

| Variant | one-hybrid fitness for binding parS DNA |
| --- | --- |
| ILWW | ≤ 0.2 |
| QWLA | ≤ 0.2 |
| PASI | ≤ 0.2 |
| AFQG | ≤ 0.2 |
| DGHT | ≤ 0.2 |
| WNVG | ≤ 0.2 |
| PDQL | ≤ 0.2 |
| SNNT | ≤ 0.2 |
| RKQD | ≤ 0.2 |
| ESIY | ≤ 0.2 |
| PVLS | ≤ 0.2 |
| RSDP | ≤ 0.2 |
| ATLT | ≤ 0.2 |
| FTIS | ≤ 0.2 |
| FNRD | ≤ 0.2 |
| RHYH | 0.223 |
| REST | ≤ 0.2 |
| CSGY | ≤ 0.2 |
| PHLL | ≤ 0.2 |
| CSPR | ≤ 0.2 |
| WYEY | ≤ 0.2 |
| LRII | ≤ 0.2 |
| EFHL | ≤ 0.2 |
| YSRC | ≤ 0.2 |

| Variant | one-hybrid fitness for binding parS DNA |
| --- | --- |
| HSEG | ≤ 0.2 |
| HRPY | ≤ 0.2 |
| LPEV | ≤ 0.2 |
| DANS | ≤ 0.2 |
| SLMQ | ≤ 0.2 |
| NRKN | ≤ 0.2 |
| QMLD | ≤ 0.2 |
| SREV | ≤ 0.2 |
| MTKS | ≤ 0.2 |
| HDTP | ≤ 0.2 |
| VHNG | ≤ 0.2 |
| EHLY | ≤ 0.2 |
| DATW | ≤ 0.2 |
| DAIN | ≤ 0.2 |
| FWSS | ≤ 0.2 |
| YVKV | ≤ 0.2 |
| MMAV | ≤ 0.2 |
| DGGT | ≤ 0.2 |
| KKVN | ≤ 0.2 |
| NLEW | ≤ 0.2 |
| PLRA | ≤ 0.2 |
| DRFG | ≤ 0.2 |
| WQFR | ≤ 0.2 |
| QLVD | ≤ 0.2 |

| Variant | one-hybrid fitness for binding parS DNA |
| --- | --- |
| VPNC | ≤ 0.2 |
| LMGD | ≤ 0.2 |
| HRGM | ≤ 0.2 |
| QKKP | ≤ 0.2 |
| LLEV | ≤ 0.2 |
| MRKK | ≤ 0.2 |
| PKAM | ≤ 0.2 |
| PRDA | ≤ 0.2 |
| CSPT | ≤ 0.2 |
| SQQC | ≤ 0.2 |
| IVAD | ≤ 0.2 |
| NECC | ≤ 0.2 |
| QPKI | ≤ 0.2 |
| QSPD | ≤ 0.2 |
| PRVN | ≤ 0.2 |
| KCGR | ≤ 0.2 |
| TATT | ≤ 0.2 |
| TPTG | ≤ 0.2 |
| CYGG | ≤ 0.2 |
| IEWL | ≤ 0.2 |
| SKAH | ≤ 0.2 |
| SWQM | ≤ 0.2 |
| QQSM | ≤ 0.2 |
| PGCE | ≤ 0.2 |

| Variant | one-hybrid fitness for binding parS DNA |
| --- | --- |
| GWSN | ≤ 0.2 |
| SWPS | ≤ 0.2 |
| GTYR | ≤ 0.2 |
| RIIY | 0.398 |
| TKHW | ≤ 0.2 |
| PNSA | ≤ 0.2 |
| KRYF | ≤ 0.2 |
| VLPH | ≤ 0.2 |
| QIDE | ≤ 0.2 |
| YMSG | ≤ 0.2 |
| PVTK | ≤ 0.2 |
| YDQM | ≤ 0.2 |
| ENCR | ≤ 0.2 |
| VDLE | ≤ 0.2 |
| IRNF | ≤ 0.2 |
| ATGA | ≤ 0.2 |
| ILAM | ≤ 0.2 |
| QAQC | ≤ 0.2 |
| TSDS | ≤ 0.2 |
| PHKL | ≤ 0.2 |
| GCDR | ≤ 0.2 |
| KKQP | ≤ 0.2 |
| LTCA | ≤ 0.2 |
| ACKH | ≤ 0.2 |

| Variant | one-hybrid fitness for binding parS DNA |
| --- | --- |
| FTHC | ≤ 0.2 |
| ADDH | ≤ 0.2 |
| MRLP | ≤ 0.2 |
| NDCA | ≤ 0.2 |
| KMVT | ≤ 0.2 |
| TITP | ≤ 0.2 |
| LDPA | ≤ 0.2 |
| VWTL | ≤ 0.2 |
| EWKR | ≤ 0.2 |
| IGSW | ≤ 0.2 |
| VYER | ≤ 0.2 |
| HAAC | ≤ 0.2 |
| FQSI | ≤ 0.2 |
| QTIQ | ≤ 0.2 |
| CIFR | ≤ 0.2 |
| TEIG | ≤ 0.2 |
| QIRR | ≤ 0.2 |
| LFET | ≤ 0.2 |
| KPDI | ≤ 0.2 |
| KKHT | ≤ 0.2 |
| RYNF | 0.214 |
| QQNM | ≤ 0.2 |
| DTMQ | ≤ 0.2 |
| YHHA | ≤ 0.2 |

| Variant | one-hybrid fitness for binding parS DNA |
| --- | --- |
| MEPC | ≤ 0.2 |
| PQCT | ≤ 0.2 |
| DPMA | ≤ 0.2 |
| IQGS | ≤ 0.2 |
| TWLA | ≤ 0.2 |
| WMTC | ≤ 0.2 |
| SGCG | ≤ 0.2 |
| QDSN | ≤ 0.2 |
| TLCC | ≤ 0.2 |
| DEPS | ≤ 0.2 |
| GVRR | ≤ 0.2 |
| LSRI | ≤ 0.2 |
| AILT | ≤ 0.2 |
| THGI | ≤ 0.2 |
| CYWL | ≤ 0.2 |
| DLNV | ≤ 0.2 |
| KWWR | ≤ 0.2 |
| LEAC | ≤ 0.2 |
| LVPD | ≤ 0.2 |
| QAMF | ≤ 0.2 |
| HWYM | ≤ 0.2 |
| HVIC | ≤ 0.2 |
| VAWS | ≤ 0.2 |
| PSER | ≤ 0.2 |

| Variant | one-hybrid fitness for binding parS DNA |
| --- | --- |
| LPRF | ≤ 0.2 |
| ILSR | ≤ 0.2 |
| FGHC | ≤ 0.2 |
| KRGC | ≤ 0.2 |
| ALPV | ≤ 0.2 |
| IHLY | ≤ 0.2 |
| RTAY | 0.485 |
| MWNT | ≤ 0.2 |
| QGDR | ≤ 0.2 |
| HHLD | ≤ 0.2 |
| LKAE | ≤ 0.2 |
| LIKL | ≤ 0.2 |
| ADWS | ≤ 0.2 |
| IFLM | ≤ 0.2 |
| ALGV | ≤ 0.2 |
| QEGS | ≤ 0.2 |
| AKQW | ≤ 0.2 |
| DATV | ≤ 0.2 |
| VHVG | ≤ 0.2 |
| GMPE | ≤ 0.2 |
| CNKT | ≤ 0.2 |
| CYRC | ≤ 0.2 |
| QDIR | ≤ 0.2 |
| QQVY | ≤ 0.2 |

| Variant | one-hybrid fitness for binding parS DNA |
| --- | --- |
| QVYM | ≤ 0.2 |
| SSAT | ≤ 0.2 |
| WHKT | ≤ 0.2 |
| GWTV | ≤ 0.2 |
| LVQL | ≤ 0.2 |
| KRHA | ≤ 0.2 |
| ANPT | ≤ 0.2 |
| WCWR | ≤ 0.2 |
| PGIL | ≤ 0.2 |
| MTPG | ≤ 0.2 |
| LVLY | ≤ 0.2 |
| IWRG | ≤ 0.2 |
| PNYN | ≤ 0.2 |
| SDFT | ≤ 0.2 |
| KYCS | ≤ 0.2 |
| ENIS | ≤ 0.2 |
| HFVR | ≤ 0.2 |
| RVEI | ≤ 0.2 |
| RTVL | ≤ 0.2 |
| TTSR | ≤ 0.2 |
| QGYT | ≤ 0.2 |
| PWVQ | ≤ 0.2 |
| DKLT | ≤ 0.2 |
| QIQV | ≤ 0.2 |

| Variant | one-hybrid fitness for binding parS DNA |
| --- | --- |
| MINC | ≤ 0.2 |
| LCHY | ≤ 0.2 |
| DRKV | ≤ 0.2 |
| RKRC | 0.737 |
| IRTF | ≤ 0.2 |
| MCKC | ≤ 0.2 |
| KCMV | ≤ 0.2 |
| GELL | ≤ 0.2 |
| VDRR | ≤ 0.2 |
| RHQI | ≤ 0.2 |
| LGQS | ≤ 0.2 |
| KVGL | ≤ 0.2 |
| QKQF | ≤ 0.2 |
| NHKE | ≤ 0.2 |
| HNSI | ≤ 0.2 |
| PSDS | ≤ 0.2 |
| VFDC | ≤ 0.2 |
| DVMG | ≤ 0.2 |
| HMDV | ≤ 0.2 |
| QWHR | ≤ 0.2 |
| TYSS | ≤ 0.2 |
| NKKV | ≤ 0.2 |
| EGKF | ≤ 0.2 |
| KSRY | ≤ 0.2 |

| Variant | one-hybrid fitness for binding parS DNA |
| --- | --- |
| PLNH | ≤ 0.2 |
| IYAI | ≤ 0.2 |
| AVDT | ≤ 0.2 |
| AGTL | ≤ 0.2 |
| ADPW | ≤ 0.2 |
| CPLK | ≤ 0.2 |
| LVAN | ≤ 0.2 |
| WPVN | ≤ 0.2 |
| WRVT | ≤ 0.2 |
| CQPR | ≤ 0.2 |
| PMDS | ≤ 0.2 |
| RPAG | ≤ 0.2 |
| NSTE | ≤ 0.2 |
| LCGL | ≤ 0.2 |
| NRHA | ≤ 0.2 |
| QPKV | ≤ 0.2 |
| YLVN | ≤ 0.2 |
| RAVS | 0.986 |
| QNVT | ≤ 0.2 |
| GDSK | ≤ 0.2 |
| AGSD | ≤ 0.2 |
| TCTP | ≤ 0.2 |
| RIQR | ≤ 0.2 |
| DHDY | ≤ 0.2 |

| Variant | one-hybrid fitness for binding parS DNA |
| --- | --- |
| EFRS | ≤ 0.2 |
| PWCC | ≤ 0.2 |
| WSKF | ≤ 0.2 |
| MCPS | ≤ 0.2 |
| RNYE | ≤ 0.2 |
| SFIT | ≤ 0.2 |
| PQHT | ≤ 0.2 |
| YADF | ≤ 0.2 |
| FCNR | ≤ 0.2 |
| MWWG | ≤ 0.2 |
| SCTD | ≤ 0.2 |
| LAPP | ≤ 0.2 |
| FSMS | ≤ 0.2 |
| AKYW | ≤ 0.2 |
| AEKM | ≤ 0.2 |
| RWPK | ≤ 0.2 |
| TYRL | ≤ 0.2 |
| RRFL | ≤ 0.2 |
| PYLW | ≤ 0.2 |
| TAIG | ≤ 0.2 |
| YDFC | ≤ 0.2 |
| TNML | ≤ 0.2 |
| RVNV | ≤ 0.2 |
| TNDK | ≤ 0.2 |

| Variant | one-hybrid fitness for binding parS DNA |
| --- | --- |
| QVPW | ≤ 0.2 |
| TAPR | ≤ 0.2 |
| RCLD | ≤ 0.2 |
| GRRM | ≤ 0.2 |
| TLPS | ≤ 0.2 |
| NKQG | ≤ 0.2 |
| DPVS | ≤ 0.2 |
| DRGG | ≤ 0.2 |
| DVGS | ≤ 0.2 |
| RYEL | ≤ 0.2 |
| AHNC | ≤ 0.2 |
| TPCR | ≤ 0.2 |
| AERL | ≤ 0.2 |
| EFKT | ≤ 0.2 |
| SSEM | ≤ 0.2 |
| PIDQ | ≤ 0.2 |
| GWSK | ≤ 0.2 |
| WFRR | ≤ 0.2 |
